Hit rate of the full screen: of about 46,000 compounds, about 60 (0.1%) were called active. Not shown: some 3% with an inconclusive outcome. Calls come from the whole dose curve; as a rule, active = well fitted inhibition curve with a large enough effect; inconclusive = small, poorly fitted or top-dose-only effect; inactive = no such curve, though single readings can be large or run the other way. Some of the results follow.
assay: Primary qHTS assay for Inhibitors of ovarian cancer metastasis using an organotypic tumor microenvironment (TME) model.; note: nearly all actives have a fitted effect of over 65% in size;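 for activity change, negative = inhibition: plate controls were DMSO wells for no effect and tomatine positive control wells for full effect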; conditions: SKOV3ip1-GFP adhesion/invasion on 3D omental model, fluorescence; series mostly up to 45.8 µM; activity change, negative = inhibition: at the top concentration
In short: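 Primary human omental fibroblast/mesothelial 3D culture pre-formed 48 h. SKOV3ip1-GFP cells added with compounds (0.36-46 umol/L), incubated 2 h RT/16 h 37 C, fixed; GFP cells quantified at 488/509 nm.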

Activity change, negative = inhibition, inactive:
Cc1cc(C)nc(NS(=O)(=O)c2ccc(NC(=O)COc3ccc(Cl)cc3C)cc2)n1 0.627%
O=C(CSc1nccn1Cc1ccccc1)NCc1ccc(F)cc1 1.79%
CCOc1cc(-c2ccc(OC(=O)c3ccccc3F)cc2)cc(=O)c2c(C)oc(C)c12 -15.1%
CC1CN(C(=O)Nc2ccc(C(=O)NCCc3ccccc3)cc2)c2ccccc2S1 (stereo not given) 0.532%
Clc1cccc(N2CCN(c3nc4ccccc4n4cnnc34)CC2)c1 0.319%
COc1ccc(NC(=O)CCc2nnc3n(C)c(=O)c4sccc4n23)cc1 -15.6%
COc1ccc(-n2ccnc(NCc3ccc(Cl)cc3)c2=O)cc1 -1.71%
COc1ccc(-n2nc3ccc(NC(=O)c4ccc(-c5cc(Cl)ccc5Cl)o4)cc3n2)cc1 13.6%
Cc1c(Cl)ccc2sc(NC(=O)c3ccc(S(=O)(=O)N4CCCc5ccccc54)cc3)nc12 6.63%
CCCc1cnc2c(c1SCC(=O)N(C)c1ccccc1)c(=O)n(C)c(=O)n2C -25.9%
Cc1c(Cl)cccc1-c1ccc(CNc2ccc3[nH]c(=O)[nH]c3c2)o1 -18.6%
Cc1cc(C)cc(NC(=O)CCC(=O)N2Cc3ccccc3Oc3ncccc32)c1 -18.1%
COc1cccc(NC(=O)C2CCCN(S(=O)(=O)c3c(C)[nH]c(=O)[nH]c3=O)C2)c1 (stereo not given) 20.3%
CC1CCN(S(=O)(=O)c2ccc3c(c2)oc(=O)n3CC(=O)NCc2ccc(F)cc2)CC1 -9.01%
Cc1cc(C)cc(-n2c(SCC(=O)N3CCCCC3)nc3c([nH]c4ccccc43)c2=O)c1 -6.09%
CCc1ccccc1NC(=O)c1nnn(-c2ccc(F)cc2)c1C 0.836%
COc1cc2ccccc2cc1C(=O)Nc1ccc2oc(-c3ccc(F)cc3)nc2c1 1.18%
Cc1cccc(N2CCN(C(=O)NCc3noc4ccccc34)CC2)c1C 6.06%
COc1ccc(CNC(=O)c2cc3c(=O)[nH]c4ccccc4c3s2)cc1 3.98%
Cc1ccc(SCc2nc(-c3ccc(C(=O)NCc4ccc(Cl)cc4)cc3)oc2C)cc1 -16.9%
COc1cc(C(=O)Nc2nc3nc(-c4ccccc4)cc(=O)n3[nH]2)cc(OC)c1OC 12.7%
COc1cc(NC(=O)c2noc3c2CSc2ccccc2-3)cc(OC)c1OC -4.25%
O=C(NC1CCCCC1)c1cc(Nc2cccc(C(F)(F)F)c2)nc2ccccc12 6.14%
CCN(Cc1ccccc1)C(=O)c1nc(-c2cccc(F)c2)n2c1CCCCC2 6.2%
Cc1ccn2c(Nc3ccccc3C)c(-c3ccccn3)nc2c1 -12.7%
CCn1c(=O)n(CC)c2cc(N3CCCCC3)c(NC(=O)Nc3cc(C)cc(C)c3)cc21 3.55%
CCn1cc(C(=O)N2CCN(c3cc(C)ccc3C)CC2)c(=O)c2cc(S(=O)(=O)N3CCOCC3)ccc21 -23.7%
OCCCc1nc2ccccc2n1CCCCOc1ccccc1 3.4%
COc1ccccc1CNC(=O)C(=O)NCC(c1ccco1)S(=O)(=O)c1cccs1 (stereo not given) -5.07%
Cc1oc2ncn(CC(C)C)c(=O)c2c1C(=O)N1CCN(c2cccc(C(F)(F)F)c2)CC1 11.3%
CCOC(=O)C1CCN(C(=O)Cn2c(=O)cc(C)c3c(C)nn(C)c32)CC1 1.33%
Cc1ccc(C)n1-c1c(C(=O)NCCC(C)C)sc2ncccc12 -2.22%
COCCc1nn2c(=O)cc(COC(=O)c3ccc(OC)c(OC)c3)nc2s1 3.82%
CCOC(=O)c1ccccc1NC(=O)Cn1c(=O)n(Cc2nc(-c3ccccc3)no2)c(=O)c2ccccc21 4.46%
COc1cccc(NC(=O)CSC2=Nc3ccccc3C3=NC(CC(=O)NCCc4ccccc4)C(=O)N23)c1 (stereo not given) 1.64%
COc1cccc(NC(=O)CSC2=Nc3ccccc3N=C(c3ccc(F)cc3)C2)c1 4.13%
O=C(c1ccc2c(c1)N(Cc1ccccc1F)C(=O)c1ccccc1S2(=O)=O)N1CCCCC1 -11.3%
CCc1ccc(C(=O)c2cn(CC(=O)NCCc3ccc(OC)c(OC)c3)c3nc(C)ccc3c2=O)cc1 2.23%
O=C(CCc1nc(CN2CCN(S(=O)(=O)c3ccc(F)cc3)CC2)no1)N1CCCCC1 3.49%
CCc1ccc(-n2c(SCc3ccccc3F)nc3[nH]ncc3c2=O)cc1 -18.1%
O=C(Nc1cc2cc[nH]c2cn1)c1ccccc1 6.58%
COc1ccc(OC)c(S(=O)(=O)N2CCC(c3ccncc3)CC2)c1 -2.07%
COc1ccc(S(=O)(=O)Nc2cccnc2Nc2ccc(O)cc2)cc1 5.91%
Cc1ccc(NC(=O)c2cccc(N(C)C)c2)cc1NC(=O)c1ccc(O)cc1 -5.33%
O=C1NCCc2[nH]c(-c3ccncc3)cc21 23.6%
O=c1nc2sc3ccccc3n2c(=O)n1-c1ccc(Cl)c(Cl)c1 5.35%
O=C(CCC1N=C2c3ccccc3N=C(SCC(=O)Nc3ccccc3F)N2C1=O)NCc1ccccc1 (stereo not given) -7.53%
Cc1ccc(NC(=O)c2sc3nc(-c4cc5ccccc5oc4=O)[nH]c(=O)c3c2C)c(C)c1 1.96%
CCC(=O)N1CCc2cc(S(=O)(=O)NC(Cc3ccccc3)C(=O)Nc3ccc(C)cc3)ccc21 (stereo not given) 7.55%
COc1cc(C(=O)Nc2cc3c(cc2C)n(C)c(=O)c(=O)n3C)cc(OC)c1OC -8.54%
COc1cc(C(=O)Nc2cc(C)ccc2OCc2cc(=O)n3c(C)csc3n2)cc(OC)c1OC 2.43%
CCOc1ccc(-n2c(SCc3ccc(C(=O)OC)o3)nc3c([nH]c4ccccc43)c2=O)cc1 74%
CCCc1cc(=O)[nH]c(Nc2cccc(Cl)c2Cl)n1 6.35%
CCOc1ccc(-c2cc(OC(=O)c3ccc(F)cc3)c3c(C)oc(C)c3c(=O)c2)cc1 -0.176%
COc1ccc(NC(=O)c2cc3c(s2)-c2c(C)cccc2OC3)c(OC)c1 -9.42%
CCOC(=O)C1CCCN(S(=O)(=O)c2ccc3c(c2)CCCN3C(C)=O)C1 (stereo not given) -5.79%
CSc1ncc(C(=O)Nc2ccccc2C(=O)c2ccccc2)c(C(F)(F)F)n1 -7.62%
CCc1nn(CC(=O)NCCCN(CC)CC)c(=O)c2cc3sc(C)cc3n12 -2.2%
Fc1ccc(-n2cc(-c3ccccc3)c3c(NC4CCCCC4)ncnc32)cc1 -1.8%
C=C(C)Cn1c(=O)c2c(nc3n2CCN3c2ccc(CC)cc2)n(C)c1=O 5.95%
CCCCNc1nc(Oc2ccc(=O)[nH]n2)nc(N(C)C)n1 0.319%
CCn1c2ccccc2c2nnc(N3CCN(c4cc(C)ccc4C)CC3)nc21 3.51%
Fc1ccc(-c2nc(Nc3cccc(Cl)c3)nc3c2COc2ccccc2-3)cc1 2.66%
Cc1ccc(-n2ncc3c(NCCCN4CCOCC4)ncnc32)cc1 3.95%
CCOc1cc(C2C(C(=O)OC)=C(C)NC3=C2C(=O)c2ccccc23)cc(Cl)c1O (stereo not given) -5.5%
COc1ccc(NC(=O)C2Cc3ccccc3N2C(=O)c2ccccc2)c(OC)c1 (stereo not given) 1.32%
CCOc1ccccc1NC(=O)c1cc2c(Cl)nc3ccccc3c2s1 1.19%

outcome, inactive:
Cc1ccc(CCNC(=O)c2cc3sccc3n2Cc2ccc(C)cc2)cc1
O=C(Nc1ccc(Br)c2cccnc12)c1cccc2ccccc12
CCN(c1cc(C)cc(C)c1)S(=O)(=O)c1nnc(NC(=O)C2CCCCC2)s1
COc1ccc(NC(=O)c2oc3ccccc3c2NC(=O)c2cccc(F)c2)c(OC)c1
CCOc1ccc(NC(=O)Cn2c(=O)n(Cc3ccco3)c(=O)c3oc4ccccc4c32)cc1
Cc1ccn2c(=O)cc(CSc3nnc(NC(=O)c4ccccc4Cl)s3)nc2c1
COCCCNC(=O)C1CCCN(C(=O)c2cnn(-c3ccc(F)cc3)c2-n2cccc2)C1 (stereo not given)
COc1ccc(Cl)cc1NC(=O)Cn1c(=O)n(Cc2ccco2)c(=O)c2cccnc21
Cc1cccc(-c2noc(CN(C(=O)COc3ccc(Br)cc3C)C(C)C)n2)c1
CCOc1ccc(NC(=O)C(NS(=O)(=O)c2cccc3nsnc23)c2ccccc2)cc1 (stereo not given)
O=C(NC1CCCCC1)c1cc2c(Cl)nc3ccccc3c2s1
COc1ccc(C(=O)NCCn2cc(SCC(=O)Nc3cccc(C)c3)c3ccccc32)cc1
COc1cc(-c2nc3nc[nH]n3c2Nc2ccc(C(C)C)cc2)ccc1O
CCc1nn(-c2ccccc2)c2nc(-c3cccc(OC)c3)c3cc(OC)c(OC)cc3c12
COc1ccccc1N1CCN(C(=O)Cn2ncc3c([nH]c4ccccc43)c2=O)CC1
Cc1ccc(CNC(=O)CCCCn2c(=O)c3ccccc3n(Cc3c(C)cc(C)cc3C)c2=O)cc1
CCN1CCN(C(=O)c2cnn(-c3ccc(F)cc3)c2-n2cccc2)CC1
Cc1ccc(C2C=C(c3ccc(Cl)cc3)Nc3nc(NS(=O)(=O)c4ccccc4)nn32)cc1 (stereo not given)
COc1ccccc1NC(=O)Cn1c(=O)n(-c2cccc(C(C)=O)c2)c(=O)c2c3c(sc21)CN(C(C)=O)CC3
COc1ccccc1-c1noc(-c2ccc(N3CCC(C)CC3)c([N+](=O)[O-])c2)n1
CCN1C(=O)c2ccccc2Sc2ccc(NC(C)=O)cc21
O=C(CC1Sc2ccc(C(F)(F)F)cc2NC1=O)Nc1ccc(Cl)c(C(F)(F)F)c1 (stereo not given)
O=C(Nc1ccc(Br)cc1F)c1cc(S(=O)(=O)NCc2ccc(F)cc2)ccc1F
COc1ccc(CCNC(=O)c2cc3c(-c4ccccc4F)nn(C)c3s2)c(OC)c1
CCOC(=O)c1cccc(NC(=O)c2cc3c(=O)n(Cc4ccccc4)ccc3nc2C)c1
COc1ccc(NC(=O)CN(Cc2ccccc2)S(=O)(=O)c2ccc(C)cc2)cc1Cl
COc1cccc(-n2c(=O)c3c(C)c(C(=O)N(C)C)sc3n(Cc3ccc(F)cc3Cl)c2=O)c1
O=C(CCC1N=C2c3ccccc3N=C(SCc3ccccc3F)N2C1=O)NC1CCCCC1 (stereo not given)

Reference: PubChem BioAssay AID1963576 (National Center for Advancing Translational Sciences (NCATS), 2024)
